Laboratory results from the RNAGym collection of RNA variant scans (doi:10.1073/pnas.2313332121).
Variants at the floor of the assay are shown more often than the library holds them.

B1: TPR 5TU (parent)
chain: GGAUCUUCUCGAUCUAACAAAAAAGACAAAUCUGCCACAAAGCUUGAGAGCAUCUUCGGAUGCAGAGGCGGCAGCCUUCGGUGGCGCGAUAGCGCCAACGUUCUCAACUAUGACACGCAAAACGCGUGCUCCGUUGAAUGGAGUUUAUCAUG

Variants of: B1
Assay: polymerase ribozyme fitness, log enrichment relative to wild type (log ratio); higher = more active; in vitro selection for triplet polymerase activity
How it was run: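 Mutant libraries of both subunits of a heterodimeric triplet polymerase ribozyme were PCR-built, transcribed, and selected once in triplicate, with frozen incubation at −7 °C and capture of gel-excised extended constructs on streptavidin beads before RT-PCR. Illumina sequencing of input and output libraries was filtered to genotypes with ≥10 input reads and ≥1 read per output. Fitness is the logarithm of genotype enrichment over wild-type enrichment, using inverse-variance-weighted replicate averages. The logarithm is base 2.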

| Variant | polymerase ribozyme fitness (log ratio) |
| --- | --- |
| A19G G34C C85G A89U U139A A147U | ≤ -4.2 |
| A19G A29U C76G G83U U90C A107G G128U | ≤ -4.2 |
| A19U A22C G94C C96G C123U G128A U139C U146C | ≤ -4.2 |
| A20C A24C C51A G74C G94U A121U U135G U148C | ≤ -4.2 |
| A19C C79G C87G G94C | ≤ -4.2 |
| A19C C123G | 0.921 |
| A19U G25U A41C G94A A142C G152A | ≤ -4.2 |
| A19G C54G | -1.84 |
| A19C C51U A142C | -0.768 |
| A19U A23C C38U A39C G58U G92A G141C G143U | ≤ -4.2 |
| A19U C38A G50C G71U A98G C103A C105G | ≤ -4.2 |
| A19G A23C | ≤ -4.2 |
| A19C C36A G59C A107U A142C | ≤ -4.2 |
| A19C G34U G50C U56A G83C G124U G141C | ≤ -4.2 |
| A20C A26U A29G C75A C79U A89G G94A U151G | ≤ -4.2 |
| A20C A29C C54A G68A A115G | ≤ -4.2 |
| A19C U53A U55G A60G A73G G84A | ≤ -4.2 |
| A20C A26G G92U | ≤ -4.2 |
| A19G A49G A52U C76A C129U C132U | ≤ -4.2 |
| A19U A30U C36U U56G G86A G126C U144C | ≤ -4.2 |
| A19U U44C G46U A66C G68C G83A C125U | ≤ -4.2 |

| Variant | polymerase ribozyme fitness (log ratio) |
| --- | --- |
| A19G A24U U31C C35G U61G C75U G83A | ≤ -4.2 |
| A19U A30G G42A G46C G68U C87U A91C C132U A142C U144C A147G | ≤ -4.2 |
| A19G U44A G68C C103G U104A A107U A115C A137C | ≤ -4.2 |
| A19C A52G U53A A98U A110U | ≤ -4.2 |
| A19U G46U A89C | -2.83 |
| A19C U109G | -0.641 |
| A20C A24U U44A G88A C93U | ≤ -4.2 |
| A19G C27G C103A U134G U135G U145G | ≤ -4.2 |
| A19C G68A U78A A106U G133U G140U | ≤ -4.2 |
| A19C C85G G128C U146C | ≤ -4.2 |
| A19U C27U A30U C54G U56A C75G C93G C114G | ≤ -4.2 |
| A19U A40C G81C C96G | -1.25 |
| A19U C96G C114U | -2.99 |
| A19U A137G C149G | ≤ -4.2 |
| A19C C87U U90G C99U G126U C131U A142G | ≤ -4.2 |
| A19U G71C G133A | ≤ -4.2 |
| A19C A60U G83A A97U A106G C132G A142C | ≤ -4.2 |
| A19U C32G G83C U102C U144C | ≤ -4.2 |
| A19C U56G C85G C118U A150C | ≤ -4.2 |
| A20C A28C G83C C118G | ≤ -4.2 |
| A19U U33G G58C G59U G84U C96U G136U C149G | ≤ -4.2 |

| Variant | polymerase ribozyme fitness (log ratio) |
| --- | --- |
| A19U G80C C93A | ≤ -4.2 |
| A19G G50A | -2.14 |
| A19U C57U C103G A119G C123A | -3.45 |
| A19G U90A C95G | ≤ -4.2 |
| A19U G34U C85A C129G | ≤ -4.2 |
| A19U A41U C57A C75G G83U A106G C123G | ≤ -4.2 |
| A19U A29U A107C C108G G124A | ≤ -4.2 |
| A19C G68C A73U U77G G92A | ≤ -4.2 |
| A19U A120U | -0.806 |
| A19G A73G C85A | -1.82 |
| A19G G59C C87G C116U A122U G136A A142U U151C | ≤ -4.2 |
| A19U C87A A106G G143U A150G | ≤ -4.2 |
| A19U G141A | 0.304 |
| A20C A26C G128U U144G | ≤ -4.2 |
| A19G A30U C54U C79A G84U C116G C118G U144A | ≤ -4.2 |
| A19G A21G C87U C108G A113U U130A | ≤ -4.2 |
| A19C C32G C79U C93U A110C | ≤ -4.2 |
| A19U C76U C131U | 0.231 |
| A19C C96U A106G A120C | 0.311 |
| A19U G58C C79U C96G | ≤ -4.2 |
| A19G A30G C38U G84U U90G C93A | ≤ -4.2 |

| Variant | polymerase ribozyme fitness (log ratio) |
| --- | --- |
| A19G C27U G50C C93G | ≤ -4.2 |
| A19U A30C C75U G83C C95U G117U A121G | ≤ -4.2 |
| A19G U109C G141A | -2.85 |
| A19G A28C U53A G74A C96U U102G G128U | ≤ -4.2 |
| A19U C57U A91U G92U C93U A142G | ≤ -4.2 |
| A19C G48U G50U C69U C85G A121C | ≤ -4.2 |
| A19U A26U C75G C76G G94C G128U | ≤ -4.2 |
| A19C U31C U33A A49C C93U U134C | ≤ -4.2 |
| A19G U44A A66G C76A A138C | ≤ -4.2 |
| A19G U90C C93A C99U A107G A113C G133U | ≤ -4.2 |
| A19U C54U U90C C118A | ≤ -4.2 |
| A19U C57G G68U G71C G128U | ≤ -4.2 |
| A19G A41C G42C A49C U90C U127A | ≤ -4.2 |
| A19U A37C A64G A97C | ≤ -4.2 |
| A19G A26G C54U U56G C76U U127G G141U | ≤ -4.2 |
| A19G A21G A24C A26C C35U A47C U53G U56A A60C U61A C75G C93A U104G | ≤ -4.2 |
| A19U A49G C57A A60U C116U | -2.27 |
| A19U A37C C51G U56G G68A U78C A106G | ≤ -4.2 |
| A19U C51G G68A G83A | ≤ -4.2 |
| A19U A41U C54U G81C G86U C103U G126C | ≤ -4.2 |
| A19U C38G G59C G86A C99U G117U C118A U127A A138G | ≤ -4.2 |
